These are literature values, as cited in patent EP0410147B1 (priority 1989, dated 1991).

The target in this data set is Protease 3C von HRV14 (Human rhinovirus 14, UniProt P03303). The conditions noted are these: cited from earlier work.

Molecules are shown by their SMILES.

Protease 3C von HRV14, sequence (P03303 1538-1719): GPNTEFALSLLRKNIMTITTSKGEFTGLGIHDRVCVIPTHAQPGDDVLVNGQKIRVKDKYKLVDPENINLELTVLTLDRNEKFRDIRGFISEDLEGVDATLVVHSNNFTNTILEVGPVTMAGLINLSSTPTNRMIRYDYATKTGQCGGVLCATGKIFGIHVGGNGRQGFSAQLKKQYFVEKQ

For `[Cl-].[Cl-].[Zn+2]` [ZnCl₂], the “Inhibierung des Processing von 3C-Precursorformen” value was “inhibiert”.
